According to PubChem BioAssay AID624417 (National Center for Advancing Translational Sciences (NCATS), 2012):
Values joined by “and” are separate entries in the source; they are usually repeats but may differ in a detail not shown here. Equal values may be shown once. About 6,400 (1.6%) of roughly 410,000 compounds were called active. Inconclusive means that the source gave no clear call. Such entries were picked first, then a sample of the others. The call rests on the fitted dose curve; in most records, active means well fitted inhibition curve with a large enough effect; inconclusive means small, poorly fitted or top-dose-only effect; inactive means no such curve, though single readings can be large or run the other way. Potencies beside an inconclusive call are fits to weak or partial responses and may not hold up.

These molecules were tested against Glucagon-like peptide 1 receptor (Homo sapiens) (UniProt P43220) (assay: qHTS of GLP-1 Receptor Inverse Agonists (Inhibition Mode)). Conditions: HEK293 GLP-1R CRE-luciferase, luminescence, 24 h, GLP-1R form is constitutively active; series mostly up to 38.3 µM.
Outline: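 Luminescence readout: a drop in cAMP-driven luciferase signal flags inverse agonism at a constitutively active GLP-1R stably expressed in HEK293. Compound exposure lasted 24 hr at 37 deg C, 5% CO2.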
Further: nearly all actives have a fitted effect of over 55% in size.
Potency means the concentration at half of the fitted maximal effect; tags describe the fitted curve by direction and shape.

UniProt P43220, sequence (P43220 whole entry, looked up): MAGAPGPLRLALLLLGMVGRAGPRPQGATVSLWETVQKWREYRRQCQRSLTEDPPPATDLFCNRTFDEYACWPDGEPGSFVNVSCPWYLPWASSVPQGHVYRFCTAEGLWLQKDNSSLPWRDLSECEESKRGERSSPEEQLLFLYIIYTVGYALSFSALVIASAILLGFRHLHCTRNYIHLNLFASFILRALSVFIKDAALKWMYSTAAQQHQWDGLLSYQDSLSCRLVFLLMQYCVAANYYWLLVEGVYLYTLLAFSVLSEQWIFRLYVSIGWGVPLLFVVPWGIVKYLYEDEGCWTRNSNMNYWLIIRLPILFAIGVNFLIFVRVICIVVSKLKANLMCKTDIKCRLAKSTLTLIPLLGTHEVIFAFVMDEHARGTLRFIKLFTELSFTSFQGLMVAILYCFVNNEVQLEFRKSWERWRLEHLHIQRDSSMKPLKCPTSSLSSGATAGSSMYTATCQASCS

Compound	Potency
C=Cc1ccc(Cn2c(C(=O)O)c(CNCCc3ccccc3)c3ccc(C)cc32)cc1	inconclusive: 22.4 µM [inhibitor, partial curve, poor fit]
O=C(NCCCCc1ccccc1)c1ccccc1F	inconclusive: 28.2 µM [inhibitor, single point]
CC(C)CCNC(=O)C12CN(Cc3ccccc3)CC1C(c1cccc([N+](=O)[O-])c1)=NO2 (stereo unspecified)	inconclusive: 10 µM [inhibitor, partial curve]
O=C(CSc1nc2c([nH]c3ccccc32)c(=O)n1-c1ccccc1)c1ccc(Cl)cc1	inactive
Cc1cccc(N(C)S(=O)(=O)c2csc(C(N)=O)c2)c1	inactive
O=C(NCc1ccco1)C(c1ccccc1)N(C(=O)Cc1cccs1)c1ccccc1F (stereo unspecified)	inconclusive: 28.2 µM [inhibitor, single point]
O=c1c(Cl)c(NCc2ccco2)cnn1C12CC3CC(CC(C3)C1)C2	inconclusive: 10 µM [inhibitor, partial curve, poor fit]
O=C(CN1CCN(C/C=C/c2ccccc2)CC1)Nc1ccccc1C(=O)NC1CC1	inconclusive: 31.6 µM [inhibitor, partial curve, poor fit]
Cc1ccccc1-c1nc2scc(CCNC(=O)C(=O)Nc3ccc(F)cc3F)n2n1	inconclusive: 28.2 µM [inhibitor, single point]
Cc1cccc(C(=O)N2CCCC(CCC(=O)N3CCN(c4ccccn4)CC3)C2)c1C (stereo unspecified)	inconclusive: 8.91 µM [inhibitor, partial curve, poor fit]
C[n+]1ccc(/C=C/c2c[nH]c3ccccc23)cc1	inconclusive: 11.2 µM [inhibitor, single point]
CCN1CCOC(=O)C1CC(=O)Nc1ccc(C)c(Cl)c1 (stereo unspecified)	inactive
O=C(C1CCCCC1)N(Cc1cccnc1)c1nc2c(F)cc(F)cc2s1	inconclusive: 31.6 µM [inhibitor, partial curve, poor fit]
COc1cccc(-c2ccc(NC(=O)C3CCCN(Cc4ccc(CO)o4)C3)cc2)c1 (stereo unspecified)	inconclusive: 28.2 µM [inhibitor, single point]
O=C(Nc1cccc(Cl)c1)c1cccc(N2C(=O)C3CC=CCC3C2=O)c1 (stereo unspecified)	inconclusive: 10 µM [inhibitor, single point]
OCC1(Cc2ccc(Cl)cc2)CCN(Cc2ccc(F)c(F)c2)CC1	active: 7.94 µM
COc1ccc(CNC(=O)CCC2N=C3c4ccccc4N=C(SCc4ccc(F)cc4)N3C2=O)cc1 (stereo unspecified)	inconclusive: 10 µM [inhibitor, partial curve]
CC(=O)Nc1ccc(-c2cc(-c3ccc(NC(C)=O)cc3)nc(-c3ccccc3)n2)cc1	inactive
CC[C@]1(c2ccccc2OC)ON(c2ccccc2C(F)(F)F)C1=O	inconclusive: 12.6 µM [inhibitor, partial curve, poor fit]
COc1ccccc1N(C)S(=O)(=O)c1ccc(Cl)c(C(=O)N2CCC2)c1	inactive
COC(=O)[C@@]12CCCCN1[C@H](c1ccc(-c3ccc(OC)cc3)c(OC)c1)[C@@H]1C(=O)N(C)C(=O)[C@@H]12	inconclusive: 28.2 µM [inhibitor, single point]

Compound	Potency
Cc1ccc(S(=O)(=O)N(C)C)cc1NC(=O)Nc1ccccc1F	inactive
Cc1ccc2nc(NC(=O)c3ccc(S(=O)(=O)N4CCCc5ccccc54)cc3)sc2c1	inconclusive: 2 µM [inhibitor, full curve, poor fit]
Cc1ccc2nc(-c3ccccc3)cc(C(=O)N(C)CC(=O)Nc3ccccc3Br)c2c1	inconclusive: 11.2 µM [inhibitor, partial curve, poor fit]
O=C1c2ccc3c4c(ccc(c24)C(=O)N1c1cccc(O)c1)C(=O)N(c1cccc(O)c1)C3=O	inactive
O=C(C[C@H]1C(=O)N(C2CCCCC2)C[C@@H]1Cc1ccccc1)Nc1ccccc1	inconclusive: 11.2 µM [inhibitor, partial curve, poor fit]
COc1ccc(OC)c(-c2nn(-c3ccccc3)cc2C(=O)NCC(c2ccco2)N2CCCC2)c1 (stereo unspecified)	inconclusive: 28.2 µM [inhibitor, single point]
CC(=O)c1ccc(OCC(O)CN2CC(C)OC(C)C2)cc1 (stereo unspecified)	inactive
CCOC(=O)c1ccc(NC(=O)c2ccc(OC(C)C)c(OC)c2)cc1	inconclusive: 22.4 µM [inhibitor, single point]
CCOC(=O)C1=CCC(c2ccc(N(CC)CC)cc2)N(S(=O)(=O)c2ccc(C)cc2)C1c1ccc([N+](=O)[O-])cc1 (stereo unspecified)	inactive
CCSc1ccccc1C(=O)N1CCN(c2ccc([N+](=O)[O-])cc2)CC1	inconclusive: 10 µM [inhibitor, partial curve, poor fit]
Cc1cc(OCC(O)CN2CCN(C)CC2)ccc1C(C)C (stereo unspecified)	inconclusive: 14.1 µM [inhibitor, single point] and inconclusive: 7.94 µM [inhibitor, partial curve, poor fit]
CN(C)c1ccc(CNC(=O)Cc2ccc(NC(=O)N3CCCCc4ccccc43)cc2)cc1	inconclusive: 5.62 µM [inhibitor, partial curve]
CCOC(=O)c1oc2ccc(S(=O)(=O)n3nc(-c4ccc(OC)cc4)cc3N)cc2c1C	inconclusive: 1.58 µM [inhibitor, partial curve, poor fit]
O=C(CCCc1ccccc1)NCc1ccc2c(c1)OCO2	inconclusive: 22.4 µM [inhibitor, single point]
C=CCn1c(SCC(=O)Nc2cccc(S(=O)(=O)N(C)c3ccccc3)c2)nnc1C1CC1	inconclusive: 20 µM [inhibitor, single point]
COc1ccc(OC)c(CN2CCN(C(=O)c3cccc(S(=O)(=O)Nc4ccc(C)cc4)c3)CC2)c1	inconclusive: 10 µM [inhibitor, partial curve, poor fit]
CC(C)C[C@H](NC(=O)c1nc[nH]c1C(=O)NC(c1ccccc1)c1ccccc1)C(=O)OCc1ccccc1	inconclusive: 17.8 µM [inhibitor, partial curve, poor fit]
Cc1ccc2c(CC(=O)Nc3ccc(S(=O)(=O)N4CCCCC4C)cc3)coc2c1C (stereo unspecified)	inconclusive: 6.31 µM [inhibitor, full curve, poor fit]
CC(Oc1ccc2c3c(c(=O)oc2c1)CCCC3)C(=O)NC1CC(C)(C)NC(C)(C)C1 (stereo unspecified)	inconclusive: 10 µM [inhibitor, partial curve, poor fit]
NC(Cc1ccc(F)cc1)c1csc(Nc2cc(Oc3ccccc3)ncn2)n1 (stereo unspecified)	inconclusive: 17.8 µM [inhibitor, single point]
CCCc1nc2ccccc2n1CCc1ccccc1	active: 10 µM

Compound	Potency
CCCn1c(=O)c(C(=O)NCC2CCCO2)c(O)c2ccccc21 (stereo unspecified)	inconclusive: 3.55 µM [inhibitor, full curve, poor fit]
CCN(CC#CCC1(O)c2ccccc2-c2ccccc21)C(C)C	inconclusive: 3.98 µM [inhibitor, partial curve, poor fit]
N#CC(C#N)=C1C=C2C=C(N3CCCCCC3)CCC2CC1 (stereo unspecified)	inconclusive: 8.91 µM [inhibitor, partial curve, poor fit]
COc1cccc(N(CC(=O)N2CCc3ccccc3C2)S(C)(=O)=O)c1	inactive
COc1ccc(-n2c(C)nc3c(cnn3-c3ccccc3)c2=O)cc1	inconclusive: 0.501 µM [inhibitor, full curve, poor fit]
O=C(Nc1ccc(OC(F)(F)F)cc1)C1CCCN(C(=O)c2ccc(Cl)cc2)C1 (stereo unspecified)	inconclusive: 28.2 µM [inhibitor, single point]
Cc1cccc(Nc2nc3c(s2)CCCC3)c1	inconclusive: 15.8 µM [inhibitor, single point]
O=C1Cc2ccccc2Sc2ccc(Cl)cc21	inconclusive: 28.2 µM [inhibitor, single point]
C/C(=N/NC(=O)CN1CCN(S(=O)(=O)c2ccc(Br)cc2)CC1)c1ccncc1	inconclusive: 6.31 µM [inhibitor, partial curve, poor fit]
Cc1sc2nc(SCC(=O)N3CC(C)OC(C)C3)n(C)c(=O)c2c1C (stereo unspecified)	inactive
C=C(C)Cn1c(SCC)nc2ccccc2c1=O	inconclusive: 11.2 µM [inhibitor, partial curve, poor fit]
COc1ccc(Br)cc1CNC(=O)c1cc(=O)[nH]c2ccc(S(=O)(=O)N3CCCCC3C)cc12 (stereo unspecified)	inconclusive: 20 µM [inhibitor, single point]
O=S(=O)(c1cccc(C(F)(F)F)c1)N1CCN(C(=S)NC2CC2)CC1	inconclusive: 28.2 µM [inhibitor, single point]
CCC(C)c1ccc(NC(=S)N2CCN(c3ccccn3)CC2)cc1 (stereo unspecified)	inconclusive: 10 µM [inhibitor, partial curve, poor fit]
COc1ccc(S(=O)(=O)N2CCc3cc4c(cc3C2C)OCCCO4)cc1 (stereo unspecified)	inconclusive: 28.2 µM [inhibitor, single point]
CCc1ccc(-c2ccc(SCc3ccccn3)nn2)cc1	inconclusive: 11.2 µM [inhibitor, single point]
O=C(CSc1nnc(CN2CCOCC2)n1-c1ccc(Cl)cc1)Nc1cc(Cl)ccc1O	inconclusive: 10 µM [inhibitor, partial curve, poor fit]
COc1ccc(C(=O)CC(=O)C(=O)Nc2cc(OC)ccc2OC)cc1	inactive
CC(NC(=O)COC(=O)c1cn(-c2ccccc2)nc1-c1cccs1)c1ccccc1 (stereo unspecified)	inconclusive: 28.2 µM [inhibitor, single point]
